Laboratory results from the supplement of paper PMC9446081.
The campaign covered roughly 39,000 compounds. About 220 (0.56%) showed activity. This is one part of the list.

Tested on: Escherichia coli K-12 BW25113
Test: relative growth (OD600 normalised to plate interquartile mean) (fraction); higher = less growth inhibition, active = 0.2 or less
Conditions: 50 µM; LB; incubation time: overnight (16-24 h)
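Note: static incubation at 37 °C against the wild-type strain, values averaged over two biological replicates.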

Which relative growth does the source give for `COc1ccc(CN(C)C[C@H]2OCCCC[C@H](C)Oc3ccc(NC(=O)Nc4cccc5ccccc45)cc3C(=O)N([C@@H](C)CO)C[C@@H]2C)cc1` here?
The relative growth was inactive: 1.01.

With `Cc1ccc(S(=O)(=O)N(C)C[C@H]2OCCCC[C@H](C)Oc3ccc(NC(=O)Nc4ccc5c(c4)OCO5)cc3C(=O)N([C@H](C)CO)C[C@H]2C)cc1` as the compound, how does the relative growth read?
The relative growth was inactive: 1.01.

How did the relative growth turn out when `Cc1ccc(S(=O)(=O)N(C)C[C@H]2OCCCC[C@@H](C)Oc3ccc(NC(=O)Cc4ccccc4)cc3C(=O)N([C@@H](C)CO)C[C@H]2C)cc1` was run?
Its relative growth is inactive: 1.03.

With `C[C@@H]1CCCCO[C@H](CN(C)S(=O)(=O)c2ccc(F)cc2)[C@H](C)CN([C@@H](C)CO)C(=O)c2cc(NC(=O)C3CCCCC3)ccc2O1` as the compound, how does the relative growth read?
The relative growth was inactive: 1.02.

How did the relative growth turn out when `Cc1ccc(S(=O)(=O)Nc2ccc3c(c2)CC(=O)N([C@H](C)CO)C[C@@H](C)[C@@H](CN(C)S(=O)(=O)c2ccccc2)O3)cc1` was run?
Its relative growth is inactive: 1.

`O=C(O)C[C@H]1Oc2ccccc2NC1=O` was tested. Which relative growth did it give?
Its relative growth is inactive: 0.862.

Which relative growth does the source give for `CNC(=O)CN1CCOC[C@@]2(C1)CN(Cc1ccn(C)n1)CCO2` here?
The relative growth was inactive: 1.01.

Which relative growth does the source give for `C[C@H](CO)N1C[C@H](C)[C@@H](CN(C)CC2CCCCC2)OCCCC[C@H](C)Oc2ccc(NS(=O)(=O)c3ccc(F)cc3)cc2C1=O` here?
The relative growth was inactive: 0.974.

Which relative growth does the source give for `C[C@@H]1CN([C@H](C)CO)C(=O)c2cc(NC(=O)c3ccccc3)ccc2O[C@@H](C)CCCCO[C@@H]1CN(C)Cc1ccc(C(=O)O)cc1` here?
Its relative growth is inactive: 0.983.

How did the relative growth turn out when `C[C@H](CO)N1C[C@H](C)[C@H](CN(C)S(C)(=O)=O)OCCCC[C@H](C)Oc2ccc(N(C)C)cc2C1=O` was run?
The relative growth was inactive: 0.998.

For `NC(Cc1ccc(O)c(O)c1)C(=O)O` (centres undefined), which relative growth is on record?
Its relative growth is inactive: 1.03.

For `CNC[C@H]1OCCCC[C@@H](C)Oc2ccc(NS(=O)(=O)c3c(C)noc3C)cc2C(=O)N([C@@H](C)CO)C[C@H]1C`, which relative growth is on record?
Its relative growth is inactive: 0.916.

With `C[C@@H]1CCCCO[C@H](CN(C)C(=O)NC2CCCCC2)[C@H](C)CN([C@H](C)CO)C(=O)c2cc(NS(=O)(=O)c3ccc(F)cc3)ccc2O1` as the compound, how does the relative growth read?
The relative growth was inactive: 0.995.

With `C[C@@H]1CCCCO[C@H](CN(C)CC2CCCCC2)[C@H](C)CN([C@@H](C)CO)C(=O)c2cc(NC(=O)Nc3ccc(F)cc3)ccc2O1` as the compound, how does the relative growth read?
The relative growth was inactive: 0.95.

`CCCCCCc1nc(CCCc2cc3c(c(CCCCCC)n2)[Si](C(C)C)(C(C)C)OC3)cc2c1[Si](C(C)C)(C(C)C)OC2` was tested. Which relative growth did it give?
The relative growth was inactive: 0.986.

With `COc1ccc(CNC(=O)C[C@H]2CC[C@@H]3[C@H](COc4ccc(NC(=O)C5CC5)cc4C(=O)N3C)O2)cc1` as the compound, how does the relative growth read?
The relative growth was inactive: 0.973.

With `C[C@@H]1CN([C@@H](C)CO)C(=O)CCCn2cc(nn2)CO[C@H]1CN(C)C(=O)c1cc(-c2ccccc2)on1` as the compound, how does the relative growth read?
Its relative growth is inactive: 0.996.

For `C[C@@H]1CCCCO[C@H](CN(C)C(=O)C2CCCCC2)[C@H](C)CN([C@@H](C)CO)C(=O)c2cc(NS(=O)(=O)c3cccs3)ccc2O1`, which relative growth is on record?
Its relative growth is inactive: 1.02.

How did the relative growth turn out when `C[C@@H]1CN([C@H](C)CO)C(=O)c2cc(NC(=O)Nc3cccc4ccccc34)ccc2O[C@@H]1CN(C)Cc1ccc(C(=O)O)cc1` was run?
Its relative growth is inactive: 1.01.

With `C[C@H]1CCn2cc(nn2)COC[C@@H](Cc2ccccc2)NC(=O)[C@@H](C)CCn2cc(nn2)COC[C@@H](Cc2ccccc2)NC1=O` as the compound, how does the relative growth read?
The relative growth was inactive: 0.984.

How did the relative growth turn out when `COc1ccc(NC(=O)Nc2ccc3c(c2)C(=O)N([C@@H](C)CO)C[C@H](C)[C@H](CN(C)C(=O)Nc2ccc(F)cc2)OCCCC[C@H](C)O3)cc1` was run?
Its relative growth is inactive: 1.04.

Which relative growth does the source give for `COc1ccc2c3c([nH]c2c1)[C@H](CO)N(C[C@]13CCN(CC1)S(=O)(=O)c1ccccc1)C(=O)c1cnccn1` here?
Its relative growth is inactive: 0.985.

`CCCCCOc1ccc([C@H]2C(C(=O)c3ccc4c(c3)OCCO4)=C(O)C(=O)N2Cc2ccco2)cc1` was tested. Which relative growth did it give?
The relative growth was inactive: 1.

For `O=C(c1ccc(F)cc1)N1c2ccccc2C=Cc2ccccc21`, which relative growth is on record?
Its relative growth is inactive: 1.02.

For `C[C@@H]1CN([C@H](C)CO)C(=O)c2cc(NS(=O)(=O)c3cn(C)cn3)ccc2O[C@@H](C)CCCCO[C@@H]1CN(C)S(=O)(=O)c1cccs1`, which relative growth is on record?
Its relative growth is inactive: 0.964.

`O=C(c1cccnc1)N1C[C@H]2[C@@H](c3ccccc31)[C@@H](CO)N2C(=O)CN1CCOCC1` was tested. Which relative growth did it give?
Its relative growth is inactive: 0.983.

How did the relative growth turn out when `C[C@H]1CCCCO[C@H](CN(C)C(=O)Nc2ccc(F)cc2)[C@@H](C)CN([C@@H](C)CO)C(=O)c2cc(NC(=O)CCCN(C)C)ccc2O1` was run?
Its relative growth is inactive: 0.981.

With `C[C@H]1CN([C@@H](C)CO)C(=O)c2cccc(NC(=O)c3cnccn3)c2O[C@H]1CN(C)S(=O)(=O)c1ccc(Cl)cc1` as the compound, how does the relative growth read?
Its relative growth is inactive: 0.985.

`COc1cccc(NC(=O)N[C@H]2C=C[C@H](CC(=O)N3CCN(C)CC3)O[C@H]2CO)c1` was tested. Which relative growth did it give?
The relative growth was inactive: 0.995.

With `Cc1cc(C(=O)Nc2ccc3c(c2)C(=O)N(C)[C@@H]2CC[C@@H](CC(=O)NCC(F)(F)F)O[C@H]2CO3)no1` as the compound, how does the relative growth read?
Its relative growth is inactive: 1.01.

Which relative growth does the source give for `C[C@@H]1CN([C@@H](C)CO)C(=O)c2ccccc2-c2ccccc2CO[C@@H]1CN(C)C(=O)c1cc(Cl)cc(Cl)c1` here?
Its relative growth is inactive: 1.01.

Which relative growth does the source give for `C[C@@H]1CN([C@@H](C)CO)C(=O)c2cc(/C=C/c3ccccc3)cnc2O[C@@H]1CN(C)C(=O)C1CCOCC1` here?
The relative growth was inactive: 1.02.

`COc1cccc(S(=O)(=O)Nc2ccc3c(c2)C(=O)N(C)C[C@H](OC)[C@H](C)CN(C(=O)Cc2cccnc2)[C@H](C)CO3)c1` was tested. Which relative growth did it give?
Its relative growth is inactive: 1.02.

With `C[C@@H]1CCCCO[C@H](CN(C)C(=O)c2ccncc2)[C@H](C)CN([C@@H](C)CO)C(=O)c2cc(NS(=O)(=O)c3ccc(Cl)cc3)ccc2O1` as the compound, how does the relative growth read?
The relative growth was inactive: 0.994.

With `C[C@H]1CN([C@@H](C)CO)C(=O)c2cc(NC(=O)C3CCCCC3)ccc2O[C@@H]1CN(C)Cc1ccc(-c2ccccc2)cc1` as the compound, how does the relative growth read?
Its relative growth is inactive: 0.979.

`C[C@H](CO)N1C[C@H](C)[C@H](CN(C)S(=O)(=O)c2cccs2)Oc2c(NS(=O)(=O)c3cn(C)cn3)cccc2C1=O` was tested. Which relative growth did it give?
The relative growth was inactive: 0.987.

How did the relative growth turn out when `C[C@@H]1CN([C@@H](C)CO)C(=O)c2cc(NC(=O)c3ccncc3)ccc2O[C@@H](C)CCCCO[C@@H]1CN(C)Cc1ccc(C(F)(F)F)cc1` was run?
The relative growth was inactive: 0.966.

Which relative growth does the source give for `COc1ccc(S(=O)(=O)N2C[C@@H](O)COC[C@H]3O[C@H](CC(=O)NCc4ccc(Cl)c(Cl)c4)CC[C@@H]32)cc1` here?
Its relative growth is inactive: 0.991.

Which relative growth does the source give for `COc1ccc(S(=O)(=O)N(C)C[C@@H]2Oc3ccc(NC(=O)Cn4cnnn4)cc3C(=O)N([C@@H](C)CO)C[C@@H]2C)cc1` here?
The relative growth was inactive: 1.02.

How did the relative growth turn out when `C[C@H]1CN([C@@H](C)CO)C(=O)Cc2cc(NC(=O)C3CC3)ccc2O[C@@H]1CN(C)S(=O)(=O)c1cn(C)cn1` was run?
The relative growth was inactive: 0.975.

With `C[C@@H]1CCCCO[C@H](CN(C)S(=O)(=O)c2cccs2)[C@H](C)CN([C@@H](C)CO)C(=O)c2cc(NC(=O)Nc3cccc4ccccc34)ccc2O1` as the compound, how does the relative growth read?
The relative growth was inactive: 1.03.

With `Cn1cnc(CCNC(=O)C[C@@H]2CC[C@@H]3[C@H](COC[C@@H](O)CN3C(=O)Nc3ccc(C(F)(F)F)cc3)O2)c1` as the compound, how does the relative growth read?
Its relative growth is inactive: 0.976.

`COc1ccccc1C#Cc1ccc2c(c1)O[C@H](CN(C)Cc1ccncc1)[C@H](C)CN([C@H](C)CO)S2(=O)=O` was tested. Which relative growth did it give?
Its relative growth is inactive: 0.999.

For `C[C@@H](NC(=O)C[C@@H]1C=C[C@H](NC(=O)CN2CCOCC2)[C@@H](CO)O1)c1ccccc1`, which relative growth is on record?
Its relative growth is inactive: 0.976.

How did the relative growth turn out when `C[C@H]1CN([C@@H](C)CO)C(=O)c2cccc(NS(=O)(=O)c3cccs3)c2O[C@H]1CN(C)Cc1ccc(Oc2ccccc2)cc1` was run?
The relative growth was inactive: 1.02.

For `COc1ccc(S(=O)(=O)Nc2ccc3c(c2)C(=O)N([C@H](C)CO)C[C@H](C)[C@@H](CN(C)C(=O)Nc2c(C)noc2C)OCCCC[C@H](C)O3)cc1`, which relative growth is on record?
The relative growth was inactive: 1.

With `CC(C)Oc1ccc(Cl)cc1CN` as the compound, how does the relative growth read?
The relative growth was inactive: 0.968.

`O=C(O)C1(c2cccs2)CCCC1` was tested. Which relative growth did it give?
Its relative growth is inactive: 1.01.

How did the relative growth turn out when `C[C@@H]1CN([C@@H](C)CO)C(=O)CCCn2nncc2CO[C@H]1CN(C)C(=O)Nc1cccc2ccccc12` was run?
The relative growth was inactive: 0.994.

With `C[C@H]1CN([C@@H](C)CO)S(=O)(=O)c2ccc(C#Cc3ccc(F)cc3)cc2O[C@H]1CN(C)S(C)(=O)=O` as the compound, how does the relative growth read?
Its relative growth is inactive: 1.02.

With `Cl.NCCCCCC(=O)O` as the compound, how does the relative growth read?
The relative growth was inactive: 1.13.

How did the relative growth turn out when `COc1ccc(S(=O)(=O)Nc2ccc3c(c2)C(=O)N([C@H](C)CO)C[C@H](C)[C@H](CN(C)S(=O)(=O)c2ccc(C)cc2)O3)cc1` was run?
The relative growth was inactive: 0.998.

For `C[C@H](CO)N1C[C@H](C)[C@H](CN(C)C(=O)Nc2ccc(F)cc2)Oc2ncc(C#Cc3ccc(C(F)(F)F)cc3)cc2C1=O`, which relative growth is on record?
The relative growth was inactive: 0.995.

Which relative growth does the source give for `C[C@H]1CN([C@@H](C)CO)S(=O)(=O)c2ccc(-c3cccnc3)cc2O[C@@H]1CN(C)C(=O)NC1CCCCC1` here?
Its relative growth is inactive: 0.971.

With `CCCCS(=O)(=O)NC1=NCN(CCO)CN1` as the compound, how does the relative growth read?
The relative growth was inactive: 1.01.

With `Cc1noc(C)c1NC(=O)N(C)C[C@@H]1OCCCC[C@@H](C)Oc2ccc(NC(=O)Nc3ccc(C(F)(F)F)cc3)cc2C(=O)N([C@H](C)CO)C[C@H]1C` as the compound, how does the relative growth read?
The relative growth was inactive: 0.997.

With `Cc1ccc(S(=O)(=O)Nc2ccc3c(c2)C(=O)N([C@@H](C)CO)C[C@H](C)[C@H](CN(C)C(=O)Nc2ccc(C(F)(F)F)cc2)O3)cc1` as the compound, how does the relative growth read?
The relative growth was inactive: 1.01.

`C[C@H](CO)N1C[C@H](C)[C@@H](CN(C)C(=O)C2CCCCC2)OCCCC[C@H](C)Oc2ccc(NC(=O)NC3CCCCC3)cc2C1=O` was tested. Which relative growth did it give?
Its relative growth is inactive: 1.01.

`C[C@H](CO)N1C[C@H](C)[C@@H](CN(C)C)Oc2ccc(NS(=O)(=O)c3cn(C)cn3)cc2CC1=O` was tested. Which relative growth did it give?
The relative growth was inactive: 0.993.
